Source: PubChem BioAssay (Tox21)
Where “and” joins values, the source holds several entries; their conditions need not be identical. Equal values may be shown once. The inconclusive results got no clear call from the source; some entries with a clear call stand among them for comparison. For part of these data: Where the call is inconclusive, the potency comes from a doubtful curve fit. Where a structure was tested more than once in an assay, its records may differ in their call. Calls of active or inactive are those of the source. Unless noted, the call rests on the fitted dose curve; in most records, active means well fitted curve in the direction sought with a large enough effect in the repeat runs; inconclusive means weak or mixed curves; inactive means no such curve, though single readings can be large; an effect the other way counts as inactive or inconclusive.

Columns and labels:
[1] = A CellTox Green Cytotoxicity Assay to monitor cytotoxicity in HEK293 cells - 40 hour (AID 1224871); further: nearly all actives have a fitted effect of over 45% in size; further: potency means the concentration at half of the fitted maximal effect
Summary of the method: (§1)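 Read-out: fluorescence of a cell-impermeant cyanine dye staining DNA of dead cells, proportional to cytotoxicity. HEK293, 600 cells/well with reagent, compound (23 nL DMSO) added after 5 h; reads at 0, 8, 16, 24, 32, 40 h.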

[2] = qHTS assay to identify small molecule antagonists of the androgen receptor (AR) signaling pathway using the MDA cell line - cell viability counter screen (AID 743041; further: nearly all actives have a fitted effect of over 45% in size; further: potency means the concentration at half of the fitted maximal effect; on viability change, negative = cytotoxic: on the % scale 0 is the no-effect control and ±100 the full control effect); details: MDA-kb2 viability, CellTiter-Fluor, 16 h, cells co-treated with R1881 androgen agonist; viability change, negative = cytotoxic: at 70.3 µM (top of the series)
Summary of the method: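 qHTS viability read-out; MDA-kb2 AR-luc; R1881-stimulated; 16 h exposure at 37C, 0% CO2; CellTiter-Fluor, 30 min; fluorescence intensity.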

[3] = tested on: estrogen-related receptor alpha (ERRalpha) with PGC-1alpha coactivator, human; assay: qHTS assay to identify small molecule antagonists of the estrogen related receptor signaling pathway with the pleiotropic PPARgamma coactivator (PGC) (AID 1224821; calls by dose curve;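 further: on the % scale 0 is the no-effect control and ±100 the full control effect; lower luminescence signal means antagonism of PGC/ERR signalling; nearly all actives have a fitted effect of over 50% in size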)
Summary of the method: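 A PGC/ERR cell line supplied by NTP is seeded, allowed 6 h at 37 C, and treated with test compounds in DMSO for 18 h. Signal is then measured as luciferase luminescence using One-Glo.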

[4] = qHTS assay to identify small molecule agonists of the estrogen related receptor (ERR) signaling pathway from Tox21 library (AID 1224849; calls by dose curve; further: on the % scale 0 is the no-effect control and ±100 the full control effect; nearly all actives have a fitted effect of over 15% in size); details: ERR reporter cell line, ONE-Glo luciferase, 18 h; at 92.4 µM (top of the series) unless noted
Summary of the method: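 Luminescence readout (ONE-Glo, 30 min RT) after 18 h compound exposure at 37 C of NTP-supplied ERR reporter cells; cells were plated 6 h before compound addition by pin tool.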

[5] = qHTS assay to identify small molecule agonists of the constitutive androstane receptor (CAR) signaling pathway - cell viability counter screen (AID 1224836); further: nearly all actives have a fitted effect of over 45% in size; further: potency means the concentration at half of the fitted maximal effect; on viability change, negative = cytotoxic: on the % scale 0 is the no-effect control and ±100 the full control effect
Summary of the method: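 Fluorescence from CellTiter-Fluor indicates live cells after 23 h exposure. The human hepatoma line expresses hCAR and a CYP2B6-2.2kb reporter. Incubation medium contains 0.75 uM PK11195 (final).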

[6] = qHTS assay to identify small molecule antagonists of the estrogen related receptor signaling pathway with the pleiotropic PPARgamma coactivator (PGC) from Tox21 10K library - cell viability counter screen (AID 1224840; active means well fitted cell-killing curve with a large enough effect in the repeat runs, not every such curve was filed as active; inconclusive means weak or mixed curves, or effect the other way; inactive means no such curve, though single readings can be large or run the other way; further: nearly all actives have a fitted effect of over 40% in size; further: potency means the concentration at half of the fitted maximal effect; on viability change, negative = cytotoxic: on the % scale 0 is the no-effect control and ±100 the full control effect)
Summary of the method: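 Fluorescence read-out of CellTiter-Fluor viability reagent, added after cells had been exposed to compound in DMSO for 17.5 h at 37 C; 30 min development at 37 C/5% CO2. Cells: PGC/ERR line, 2,000/well.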

[7] = qHTS assay to identify small molecule antagonists of the estrogen receptor beta (ER-beta) signaling pathway - cell viability counter screen (AID 1259382); further: nearly all actives have a fitted effect of over 55% in size; further: potency means the concentration at half of the fitted maximal effect
Summary of the method: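 Luminescent ATP read-out (CellTiter-Glo, 30 min, RT) taken in the same wells as the bla reporter assay. HEK293T ER-beta-UAS-bla cells in 2% charcoal-stripped FBS were exposed to compounds with 1nM E2 for 16 hr at 37C.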

[8] = molecular target: Voltage-gated inwardly rectifying potassium channel KCNH2 (Homo sapiens) (UniProt Q12809); assay: Human Ether-a-go-go-Related Gene (hERG) channel small molecule antagonists: fluorescence cell-based qHTS assay (AID 1671200); further: nearly all actives have a fitted effect of over 50% in size; further: potency means the concentration at half of the fitted maximal effect
Summary of the method: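 First, 1000 cells per well are seeded and cultured overnight at 37 C. Next, FluxOR II dye is loaded for 1 h at room temperature, protected from light. After 10 more minutes, stimulus is added and fluorescence is read.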

[9] = qHTS assay to identify small molecule antagonists of the TGF-beta/Smad signaling pathway (AID 1346924; active means well fitted inhibition curve with a large enough effect in the signal ratio in the repeat runs, not every such curve was filed as active; inconclusive means weak or mixed curves; the % refers to the signal ratio); details: SBE-bla HEK293T, TGF-beta/Smad reporter, beta-lactamase ratio; activity, negative = inhibition: at 76.8 µM (top of the series) unless noted
Summary of the method: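 Read-out was FRET-substrate fluorescence (405 nm excitation; 460 and 530 nm emission) after 2 h at room temperature. Before that, cells carrying a Smad-binding-element beta-lactamase reporter in HEK 293T had been stimulated 5 h at 37 C with TGF-beta1 (0.25 ng/mL addition solution) in the presence of test compound.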

[10] = qHTS assay to identify small molecule that activate the aryl hydrocarbon receptor (AhR) signaling pathway - cell viability counter screen (AID 743086); further: nearly all actives have a fitted effect of over 45% in size; further: potency means the concentration at half of the fitted maximal effect
Summary of the method: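 HepG2-AhR-luc (HG2L7.5c1) cells, 4000/well, were preincubated 5 h at 37C, exposed to compound in qHTS format for 24 hr at 37C, then given CellTiter-Fluor for 30 min; viability was read as fluorescence in the reporter wells.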

[11] = qHTS assay for small molecule agonists of the antioxidant response element (ARE) signaling pathway - cell viability counter screen (AID 743203; calls by dose curve; further: nearly all actives have a fitted effect of over 55% in size; further: potency means the concentration at half of the fitted maximal effect); details: ARE-bla HepG2 viability, CellTiter-Glo luminescence, 16 h; viability change, negative = cytotoxic: at 73.3 µM (top of the series)
Summary of the method: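 Luminescence read-out (CellTiter-Glo, 30 min at room temperature) measured cell viability in the same wells as the ARE beta-lactamase reporter. HepG2 ARE-bla cells were treated with compounds for 16 hrs at 37C/5% CO2.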

[12] = A CellTox Green Cytotoxicity Assay to monitor cytotoxicity in HepG2 cells - 16 hour (AID 1224876)
Summary of the method: (§2)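 HepG2, 600 cells/well premixed w/ CellTox Green; 5 h settle, 37 C/5% CO2; pintool cpd add (DMSO); 37 C, 40 h; fluorescence read at 0, 8, 16, 24, 32, 40 h.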

[13] = A CellTox Green Cytotoxicity Assay to monitor cytotoxicity in HepG2 cells - 8 hour (AID 1224890); further: nearly all actives have a fitted effect of over 45% in size; further: potency means the concentration at half of the fitted maximal effect
Summary of the method: as §2

[14] = molecular target: Bile acid receptor (Homo sapiens) (UniProt Q96RI1); assay: qHTS assay to identify small molecule agonists of the farnesoid-X-receptor (FXR) signaling pathway (AID 743220; active means well fitted activation curve with a large enough effect in the signal ratio in the repeat runs, not every such curve was filed as active; inconclusive means weak or mixed curves, or effect the other way; the % refers to the signal ratio; further: potency means the concentration at half of the fitted maximal effect; on activation: on the % scale 0 is the no-effect control and ±100 the full control effect); details: HEK293T FXR-UAS-bla, beta-lactamase FRET ratio, 16 h; activation: at 62.6 µM (top of the series) unless noted
Summary of the method: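 FXR-UAS-bla HEK 293T cells carrying a UAS-driven beta-lactamase reporter were plated for 5 h at 37C/5% CO2, then exposed to DMSO-dissolved Tox21 10K compounds for 16 h at 37C. A LiveBLAzer B/G FRET substrate was loaded for 2 h at room temperature before fluorescence reading.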

[15] = qHTS assay to identify small molecule antagonists of the estrogen receptor alpha (ER-alpha) signaling pathway using the BG1 cell line in the presence of 0.1 nM 17-beta-estradiol - cell viability counter screen (AID 1259241); further: nearly all actives have a fitted effect of over 40% in size; further: potency means the concentration at half of the fitted maximal effect
Summary of the method: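 Viability in VM7Luc4E2 cells after 22 hr compound exposure under 0.1 nM 17beta-estradiol stimulation, by CellTiter-Fluor.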

[16] = qHTS assay to identify small molecule antagonists of the estrogen related receptor signaling pathway with the pleiotropic PPARgamma coactivator (PGC) cell viability counter screen (AID 1224822; further: potency means the concentration at half of the fitted maximal effect)
Summary of the method: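 Fluorescence read-out of CellTiter-Fluor after 30 min at 37 C; PGC/ERR cells, 2,000 per well, had been exposed to DMSO-dissolved compounds for 17.5 h following a 6 h pre-incubation.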

[17] = qHTS assay to identify small molecule agonists of the estrogen receptor alpha (ER-alpha) signaling pathway in the presence of an antagonist - cell viability counter screen (AID 1259386);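 further: potency means the concentration at half of the fitted maximal effect; cells exposed to compounds for 22 h at 37 °C before the viability read; nearly all actives have a fitted effect of over 30% in size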
Summary of the method: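 Read-out: CellTiter-Fluor fluorescence after 1hr reagent incubation, measured in the same wells as the luciferase readout. VM7Luc4E2 cells were exposed to 15 compound concentrations with 10.0nM ICI-182,780 for 22hr at 37C.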

[18] = molecular target: Glucocorticoid receptor (Homo sapiens) (UniProt P04150); assay: qHTS assay to identify small molecule agonists of the glucocorticoid receptor (GR) signaling pathway (AID 720691; active means well fitted activation curve with a large enough effect in the signal ratio in the repeat runs, not every such curve was filed as active; inconclusive means weak or mixed curves, or effect the other way; inactive means no such curve, though single readings can be large or run the other way; the % refers to the signal ratio; further: potency means the concentration at half of the fitted maximal effect); details: GR-bla HeLa, beta-lactamase reporter ratio, 18 h; activation: at 62.4 µM (top of the series) unless noted
Summary of the method: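 HeLa GR-bla reporter line; cells pre-incubated 4 h, compound in DMSO 18 h at 37 C; LiveBLAzer B/G FRET substrate 2 h RT; fluorescence intensity read-out.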

[19] = molecular target: Estrogen receptor (Homo sapiens) (UniProt P03372); assay: qHTS assay to identify small molecule agonists of the estrogen receptor alpha (ER-alpha) signaling pathway (AID 743075; calls by dose curve;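 further: HEK293 GripTite cells with ER-alpha and UAS-driven beta-lactamase reporter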; further: potency means the concentration at half of the fitted maximal effect); details: HEK293 ER-alpha-UAS-bla, beta-lactamase FRET ratio, 18 h; activation: at 70.1 µM (top of the series)
[20] = A CellTox Green Cytotoxicity Assay to monitor cytotoxicity in HEK293 cells - 8 hour (AID 1224884); further: on the % scale 0 is the no-effect control and ±100 the full control effect; nearly all actives have a fitted effect of over 35% in size
Summary of the method: as §1
Tags describe the fitted curve by direction and shape or compound fluorescence and quenching.

Chain of UniProt P04150 (P04150 whole entry, looked up): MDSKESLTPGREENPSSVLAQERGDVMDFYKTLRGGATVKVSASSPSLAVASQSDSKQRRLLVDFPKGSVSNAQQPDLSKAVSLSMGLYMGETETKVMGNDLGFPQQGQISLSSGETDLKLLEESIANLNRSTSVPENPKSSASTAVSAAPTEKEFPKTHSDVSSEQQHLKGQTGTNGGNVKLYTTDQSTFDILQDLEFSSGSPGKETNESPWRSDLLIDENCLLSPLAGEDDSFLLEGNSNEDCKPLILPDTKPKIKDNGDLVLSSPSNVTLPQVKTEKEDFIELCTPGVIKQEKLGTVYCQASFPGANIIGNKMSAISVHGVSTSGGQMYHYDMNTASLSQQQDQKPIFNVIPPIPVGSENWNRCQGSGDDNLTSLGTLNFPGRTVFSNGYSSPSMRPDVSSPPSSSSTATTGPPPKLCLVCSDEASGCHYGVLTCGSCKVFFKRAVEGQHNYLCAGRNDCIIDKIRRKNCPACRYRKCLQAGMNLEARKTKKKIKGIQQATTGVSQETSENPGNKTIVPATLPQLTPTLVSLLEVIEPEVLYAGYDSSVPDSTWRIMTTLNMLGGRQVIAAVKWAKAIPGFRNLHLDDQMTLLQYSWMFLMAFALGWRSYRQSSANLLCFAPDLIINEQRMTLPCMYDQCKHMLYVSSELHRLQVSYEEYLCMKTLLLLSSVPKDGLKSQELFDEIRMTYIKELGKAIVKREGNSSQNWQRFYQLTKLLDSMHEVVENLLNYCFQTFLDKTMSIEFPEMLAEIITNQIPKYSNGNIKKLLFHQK
Chain of UniProt Q96RI1 (Q96RI1 whole entry, looked up): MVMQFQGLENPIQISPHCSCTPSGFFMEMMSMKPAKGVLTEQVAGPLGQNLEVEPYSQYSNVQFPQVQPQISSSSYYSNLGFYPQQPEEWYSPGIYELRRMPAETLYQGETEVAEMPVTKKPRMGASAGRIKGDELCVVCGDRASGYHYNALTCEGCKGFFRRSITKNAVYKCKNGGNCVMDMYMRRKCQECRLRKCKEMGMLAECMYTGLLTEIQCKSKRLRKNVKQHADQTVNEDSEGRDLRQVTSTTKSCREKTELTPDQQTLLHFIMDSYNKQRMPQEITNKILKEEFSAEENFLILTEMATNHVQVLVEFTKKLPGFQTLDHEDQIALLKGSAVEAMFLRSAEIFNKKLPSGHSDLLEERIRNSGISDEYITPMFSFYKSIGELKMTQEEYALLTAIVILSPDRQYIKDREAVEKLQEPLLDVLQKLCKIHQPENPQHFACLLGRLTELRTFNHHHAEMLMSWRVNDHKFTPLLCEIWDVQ
Chain of UniProt Q12809 (Q12809 whole entry, looked up): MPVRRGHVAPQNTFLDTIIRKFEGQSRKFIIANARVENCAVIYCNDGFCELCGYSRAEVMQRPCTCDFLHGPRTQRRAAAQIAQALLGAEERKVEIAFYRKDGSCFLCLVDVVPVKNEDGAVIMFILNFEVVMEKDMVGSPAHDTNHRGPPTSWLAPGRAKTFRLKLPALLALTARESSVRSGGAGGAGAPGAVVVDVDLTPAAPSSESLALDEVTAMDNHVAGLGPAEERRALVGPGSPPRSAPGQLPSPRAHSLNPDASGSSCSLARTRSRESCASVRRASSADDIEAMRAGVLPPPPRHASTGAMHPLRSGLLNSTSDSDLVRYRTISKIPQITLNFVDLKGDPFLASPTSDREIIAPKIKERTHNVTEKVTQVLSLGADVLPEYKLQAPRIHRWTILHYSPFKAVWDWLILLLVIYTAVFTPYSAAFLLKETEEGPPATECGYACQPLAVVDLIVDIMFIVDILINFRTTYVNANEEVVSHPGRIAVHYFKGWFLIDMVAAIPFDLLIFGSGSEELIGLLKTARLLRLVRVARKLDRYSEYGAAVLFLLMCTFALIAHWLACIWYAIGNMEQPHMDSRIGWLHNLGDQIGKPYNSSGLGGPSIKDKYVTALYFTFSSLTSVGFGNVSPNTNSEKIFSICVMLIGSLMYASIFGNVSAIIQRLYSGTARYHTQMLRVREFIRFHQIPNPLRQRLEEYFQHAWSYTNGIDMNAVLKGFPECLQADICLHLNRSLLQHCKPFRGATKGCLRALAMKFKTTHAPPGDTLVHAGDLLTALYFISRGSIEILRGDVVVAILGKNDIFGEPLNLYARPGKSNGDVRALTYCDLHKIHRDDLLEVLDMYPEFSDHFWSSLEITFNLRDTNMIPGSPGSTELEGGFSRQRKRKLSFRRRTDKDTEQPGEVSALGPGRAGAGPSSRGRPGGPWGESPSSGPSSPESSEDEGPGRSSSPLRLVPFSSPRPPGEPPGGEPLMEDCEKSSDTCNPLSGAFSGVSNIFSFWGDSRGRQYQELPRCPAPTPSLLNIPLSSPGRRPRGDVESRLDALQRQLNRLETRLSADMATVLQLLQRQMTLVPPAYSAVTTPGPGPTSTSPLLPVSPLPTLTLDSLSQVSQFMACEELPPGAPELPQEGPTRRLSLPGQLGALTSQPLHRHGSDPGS
Chain of UniProt P03372 (P03372 whole entry, looked up): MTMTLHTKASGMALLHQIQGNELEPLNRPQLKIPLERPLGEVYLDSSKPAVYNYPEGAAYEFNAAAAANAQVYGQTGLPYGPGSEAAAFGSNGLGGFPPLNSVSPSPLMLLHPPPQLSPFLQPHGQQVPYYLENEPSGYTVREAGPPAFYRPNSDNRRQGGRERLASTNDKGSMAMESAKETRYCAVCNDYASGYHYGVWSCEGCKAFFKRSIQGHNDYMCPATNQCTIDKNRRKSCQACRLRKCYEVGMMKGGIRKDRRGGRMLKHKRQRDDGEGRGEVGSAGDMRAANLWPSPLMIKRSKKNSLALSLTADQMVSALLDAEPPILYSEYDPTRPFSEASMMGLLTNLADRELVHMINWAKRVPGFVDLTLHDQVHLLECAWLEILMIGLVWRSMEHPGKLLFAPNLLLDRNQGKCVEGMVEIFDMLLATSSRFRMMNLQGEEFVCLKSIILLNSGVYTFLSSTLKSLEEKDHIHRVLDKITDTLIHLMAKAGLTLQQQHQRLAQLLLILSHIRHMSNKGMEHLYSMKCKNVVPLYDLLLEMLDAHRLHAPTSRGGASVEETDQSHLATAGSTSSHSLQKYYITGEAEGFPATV

O=C(O)c1ccc(Cl)cc1Cl
Potency [1]: inactive

CN=C(NC#N)NCCSCc1nc[nH]c1C
Potency [2]: inconclusive: 27.1 µM [rising, partial curve, poor fit] | Potency [3]: inactive | activity change, positive = activation [4]: inconclusive: 14.3% [at 42.5 µM]

C[C@]12CC[C@@H]3c4ccc(O)cc4CC[C@H]3[C@@H]1C[C@@H](O)[C@@H]2O
Potency [5]: inactive | Potency [6]: inactive

CCOC(=O)c1ccc(N)cc1
Potency [5]: inactive

CCCCCCCCOC(C)=O
Potency [7]: inactive

OCc1cccc(Oc2ccccc2)c1
Potency [2]: inactive

CN/C(=C\[N+](=O)[O-])NCCSCc1ccc(CN(C)C)o1
Potency [8]: inactive

NCCN1CCNC1=O
activity, negative = inhibition [9]: inconclusive: -18.1%

CC(C)COC(=O)COc1ccc(Cl)cc1Cl
Potency [10]: inconclusive: 61.1 µM [rising, partial curve, poor fit] | Potency [8]: inconclusive: 48.9 µM [inhibitor, partial curve, poor fit]

CCCCCCCCCCCCCCCCC
Potency [11]: inconclusive: 24.3 µM [cytotoxic, partial curve, poor fit]

CC(=O)c1ccccc1[N+](=O)[O-]
Potency [6]: inactive

CC(=C(CCOC(=O)C(C)C)SSC(CCOC(=O)C(C)C)=C(C)N(C=O)Cc1cnc(C)nc1N)N(C=O)Cc1cnc(C)nc1N
Potency [12]: inconclusive: 23.9 µM [activator, single point] | Potency [13]: inconclusive: 26.8 µM [activator, single point]

CCCCC(CC)COC(=O)CCCCC(=O)OCC(CC)CCCC (stereo unspecified)
Potency [14]: inactive

C[N+](C)(C)CC(O)CCl (stereo unspecified)
Potency [5]: inactive | Potency [15]: inactive

CCN(CC)CCOCCOC(=O)C1(c2ccccc2)CCCC1
Potency [10]: inconclusive: 33.5 µM [falling, single point] | Potency [16]: inconclusive: 23.7 µM [cytotoxic, partial curve, poor fit] | Potency [17]: inconclusive: 29.8 µM [cytotoxic, partial curve]

COc1cc(-c2ccc(=O)[nH]n2)ccc1OC(F)F
activation [18]: inconclusive: -13.6% | Potency [14]: inactive

CC(=O)OCC(=O)Nc1cc(C#N)cc(NC(=O)COC(C)=O)c1Cl
Potency [2]: inactive | Potency [7]: inactive

CCOC(=O)n1ccn(C)c1=S
Potency [19]: inactive | Potency [13]: inconclusive: 21.3 µM [activator, single point] | Potency [15]: inconclusive: 0.668 µM [cytotoxic, single point] | Potency [7]: inactive

c1ccc2c(c1)Cc1ccccc1-2
Potency [14]: inactive | Potency [1]: active: 39.5 µM and active: 54.9 µM | Potency [13]: inactive | Potency [8]: inconclusive: 24.5 µM [inhibitor, partial curve]

CCN(CC)CC
Potency [14]: inconclusive: 20.5 µM [rising, partial curve, poor fit] | Potency [5]: inactive | activity, negative = inhibition [9]: inconclusive: 19.4%

CCCCCCCC/C=C\CCCCCCCC(=O)OC(CO)CO
Potency [10]: inactive | Potency [6]: inactive | Potency [7]: inconclusive: 68.6 µM [cytotoxic, partial curve, poor fit]

COc1ccc(NC(C)=O)cc1N
Potency [19]: active: 54.7 µM [activator] | Potency [11]: inactive | activity, negative = inhibition [9]: inconclusive: 0.549%

CC(C)NCC(O)c1ccc2ccccc2c1 (stereo unspecified)
Potency [10]: inactive

CCn1cc(C(=O)O)c(=O)c2cnc(N3CCNCC3)nc21
Potency [6]: inactive

NNC(=O)CCCCC(=O)NN
Potency [10]: inconclusive: 77 µM [rising, partial curve, poor fit] | Potency [6]: inactive

N[C@@H]1CONC1=O
Potency [1]: inactive | Potency [13]: inconclusive: 10.7 µM [activator, single point]

C=CC(OCC)OCC
Potency [18]: inconclusive: 5.43 µM [activator, full curve] | Potency [20]: inactive

CCCCC(CC)CNC(=O)CC(C)OC(=O)CCC(=O)O (stereo unspecified)
activity change, positive = activation [4]: inconclusive: 30% [at 42.5 µM] | Potency [13]: active: 26.8 µM

Nc1ccc2cc(S(=O)(=O)O)cc(O)c2c1
Potency [10]: inconclusive: 68.2 µM [falling, single point] | Potency [15]: inconclusive: 60.8 µM [cytotoxic, partial curve, poor fit] | Potency [7]: inactive | Potency [17]: active: 48.3 µM

CC1(N)CCC(C(C)(C)N)CC1 (stereo unspecified)
Potency [18]: inactive

FC(F)(F)C(F)(F)C(F)(F)C(F)(F)C(F)(F)C(F)(F)C(F)(F)C(F)(F)Br
Potency [6]: inactive

CC(=O)Nc1ccc(S(=O)(=O)Nc2ccc([N+](=O)[O-])cc2)cc1
Potency [5]: inconclusive: 16.8 µM [cytotoxic, partial curve, poor fit] | Potency [6]: inconclusive: 33.5 µM [cytotoxic] | Potency [15]: inconclusive: 21.1 µM [cytotoxic, partial curve, poor fit]

Cc1cnc(C(=O)NCCc2ccc(S(=O)(=O)NC(=O)NC3CCCCC3)cc2)cn1
Potency [11]: inconclusive: 0.0106 µM [rising, full curve] | Potency [12]: inconclusive: 26.8 µM [activator, single point] | activity, negative = inhibition [9]: inconclusive: 0.694%
